Assay results published in the GPR68 mutational scans of Howard et al. (2025).
The least precise scores are not listed. Not listed are two conditions whose scores span a narrow range. In variant names, del marks residues removed and ins residues inserted between the two positions. For some assays here: How much ogerin was present is not stated here.

B1: GPR68, Q15743 (parent)
chain: MGNITADNSSMSCTIDHTIHQTLAPVVYVTVLVVGFPANCLSLYFGYLQIKARNELGVYLCNLTVADLFYICSLPFWLQYVLQHDNWSHGDLSCQVCGILLYENIYISVGFLCCISVDRYLAVAHPFRFHQFRTLKAAVGVSVVIWAKELLTSIYFLMHEEVIEDENQHRVCFEHYPIQAWQRAINYYRFLVGFLFPICLLLASYQGILRAVRRSHGTQKSRKDQIQRLVLSTVVIFLACFLPYHVLLLVRSVWEASCDFAKGVFNAYHFSLLLTSFNCVADPVLYCFVSETTHRDLARLRGACLAFLTCSRTGRAREAYPLGAPEASGKSGAQGEEPELLTKLHPAFQTPNSPGSGGFPTGRLA

Key:
[1] = variants of: B1; test: cAMP reporter score (Enrich2 score, wild type = 0); higher = more signal; HEK293T, FACS bins
[2] = variants of: B1; test: surface expression score (Enrich2 score, wild type = 0); higher = more signal; HEK293T, FACS bins

Row | Variant | cAMP reporter score ([1]; pH 5.5) | cAMP reporter score ([1]; pH 6) | cAMP reporter score ([1]; pH 6.5, modulator: ogerin) | surface expression score [2] | cAMP reporter score ([1]; pH 6, modulator: ogerin)
1 | G46_L48del | -1.08 | 0.946 | 0.32 | -2.69 | 
2 | E55_L56insGSG | -1.64 | -1.37 | -1.01 | 0.695 | -1.32
3 | Q49_I50insGSG | -1.52 | -1.11 | -1.19 | -2.09 | -1.31
4 | F45H | 0.239 | -0.014 | -0.272 | -0.617 | 0.401
5 | F45K | 0.634 | 0.614 | 0.161 | -0.124 | 0.65
6 | F45Y | 1.14 | 0.476 | 0.39 | 1.22 | 1.17
7 | F45Q | -1.05 | -0.208 | -1.05 | -0.867 | 0.075
8 | F45D | -1.6 | -0.243 | -1.03 | -2.59 | -1.58
9 | F45E | -0.578 | -0.968 | -0.502 | -2.37 | -0.893
10 | F45C | -0.064 | 0.359 | 0.341 | -1.37 | -0.038
11 | F45L | 0.579 | -0.257 | -0.769 | 1.6 | -0.18
12 | F45G | -2.15 |  | -1.58 | -1.37 | -1.05
13 | F45W | -0.623 | -0.326 | -0.804 | 0.92 | -0.648
14 | F45I | -0.339 | -0.398 | -0.58 | 0.199 | -0.204
15 | F45T | -0.466 | -1.5 | -1.49 | -3.2 | -0.698
16 | F45N | -0.33 | -1.32 |  | -0.71 | 

Row | Variant | cAMP reporter score ([1]; pH 5.5) | cAMP reporter score ([1]; pH 6) | cAMP reporter score ([1]; pH 6.5, modulator: ogerin) | surface expression score [2] | cAMP reporter score ([1]; pH 6, modulator: ogerin)
17 | F45A | -0.222 |  | 0.339 | -0.436 | -0.299
18 | F45R | 0.117 | -0.442 | -0.366 | -0.441 | 0.392
19 | F45S | -1.12 | -0.716 | -1.48 | -2 | -1.37
20 | F45M | 0.75 | -0.57 | -0.34 | 1.27 | 0.462
21 | F45V | -1.05 | -0.199 | -0.48 | -1.55 | -1.07
22 | Y44_F45insG | -0.607 | -0.1 | -0.074 | -2.11 | -0.461
23 | L56_V58del | -1.45 | -1.22 | -0.758 | -3 | -1.35
24 | A52_R53del | -1.32 | -0.407 | -0.74 | -2.84 | -0.475
25 | L56_G57insGS | -0.871 | -1.05 | -1.57 |  | 
26 | N54_E55insGSG | -1.45 | -1.57 |  | -2.49 | 
27 | G57_Y59del | -1.11 | -0.44 | -0.834 | -2.1 | -2.04
28 | K51del | -1.07 | -0.934 | -2.32 | -2.56 | 
29 | R53_E55del | -0.283 | 0.561 | 0.594 | -2.48 | -0.869
30 | N54E | -1.74 | -1.3 | -0.781 | -1.31 | -1.62
31 | N54M | 0.057 | -1.02 | -0.793 | -2.68 | -0.905
32 | N54T | -0.505 |  | -0.771 | -2.45 | -1.1
